Assay [1] has as its target T1, ZFYVE27^WT (full-length ZFYVE27, E2- or c-Myc-tagged, in mammalian cells) (human) (UniProt Q5T4F4).
T1 sequence: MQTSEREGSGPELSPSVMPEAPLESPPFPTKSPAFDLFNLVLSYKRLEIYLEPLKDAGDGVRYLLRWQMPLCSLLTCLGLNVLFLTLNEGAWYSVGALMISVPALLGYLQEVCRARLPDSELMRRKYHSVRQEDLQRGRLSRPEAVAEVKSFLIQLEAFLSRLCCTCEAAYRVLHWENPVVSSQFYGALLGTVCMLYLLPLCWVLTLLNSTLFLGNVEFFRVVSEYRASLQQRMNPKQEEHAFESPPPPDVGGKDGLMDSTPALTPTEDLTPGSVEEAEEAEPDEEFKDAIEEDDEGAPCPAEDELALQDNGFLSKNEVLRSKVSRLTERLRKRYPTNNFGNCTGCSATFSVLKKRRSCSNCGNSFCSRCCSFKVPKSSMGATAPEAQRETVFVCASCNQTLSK
Description: co-IP; NIH-3T3 transiently co-transfected; lysates immunoprecipitated with c-Myc tag antibody, immunoblot with E2 tag antibody; mock with non-specific IgG. In general terms: In western blotting, separated proteins are transferred to a membrane and probed.

The target in another assay is T2, ZFYVE27^150-250 (human) (UniProt Q5T4F4).
T2 sequence: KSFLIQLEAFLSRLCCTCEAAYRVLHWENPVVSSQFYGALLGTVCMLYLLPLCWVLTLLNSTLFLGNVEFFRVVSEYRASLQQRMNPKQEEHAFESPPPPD
Description: two-hybrid; direct Y2H: bait (pGBKT7, deletion constructs or full length) and prey (pGADT7, full-length ZFYVE27) co-transformed into AH109; growth on SD/-Leu/-Trp/-His/-Ade and X-α-Gal.

The target in assay [2] is full-length human ZFYVE27 (yeast two-hybrid fusion) (human) (UniProt Q5T4F4). Described as above.
Assay [3] deals with T3, ZFYVE27-ΔHR3 (deletion of HR3 in ZFYVE27^1-335 construct) (human) (UniProt Q5T4F4).
T3 sequence: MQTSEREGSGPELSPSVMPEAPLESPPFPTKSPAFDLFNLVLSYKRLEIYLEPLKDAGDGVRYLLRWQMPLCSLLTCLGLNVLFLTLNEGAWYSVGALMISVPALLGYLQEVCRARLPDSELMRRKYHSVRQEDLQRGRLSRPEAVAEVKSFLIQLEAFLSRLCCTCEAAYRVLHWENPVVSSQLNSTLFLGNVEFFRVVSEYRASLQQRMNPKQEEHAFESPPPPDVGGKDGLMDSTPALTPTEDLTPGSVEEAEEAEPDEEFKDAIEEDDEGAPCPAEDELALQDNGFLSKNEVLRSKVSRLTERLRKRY
Described as above.

A further assay deals with T4, ZFYVE27^1-184 (human) (UniProt Q5T4F4).
T4 sequence: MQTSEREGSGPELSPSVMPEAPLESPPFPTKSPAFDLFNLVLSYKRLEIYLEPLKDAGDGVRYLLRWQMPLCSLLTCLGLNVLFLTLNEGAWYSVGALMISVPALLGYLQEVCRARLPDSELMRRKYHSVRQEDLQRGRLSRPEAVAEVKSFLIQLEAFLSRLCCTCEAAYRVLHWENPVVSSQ
The description is as above.

The target in assay [4] is T5, E2-ZFYVE27^ΔC(1-150aa) (human) (UniProt Q5T4F4).
T5 sequence: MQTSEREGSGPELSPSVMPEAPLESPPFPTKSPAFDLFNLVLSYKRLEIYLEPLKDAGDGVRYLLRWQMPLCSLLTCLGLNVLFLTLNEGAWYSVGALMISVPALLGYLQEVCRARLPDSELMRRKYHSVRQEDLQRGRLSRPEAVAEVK
Description: co-IP; NIH-3T3 transiently co-transfected; lysates immunoprecipitated with E2 tag antibody, immunoblot with c-Myc tag antibody; mock with non-specific IgG.

Assay [5] deals with T1, ZFYVE27^WT (full-length ZFYVE27, E2- or c-Myc-tagged, in mammalian cells) (human). The assay is described as above.
Assay [6] has as its target T6, E2-ZFYVE27^ΔN(150-404aa) (human) (UniProt Q5T4F4).
T6 sequence: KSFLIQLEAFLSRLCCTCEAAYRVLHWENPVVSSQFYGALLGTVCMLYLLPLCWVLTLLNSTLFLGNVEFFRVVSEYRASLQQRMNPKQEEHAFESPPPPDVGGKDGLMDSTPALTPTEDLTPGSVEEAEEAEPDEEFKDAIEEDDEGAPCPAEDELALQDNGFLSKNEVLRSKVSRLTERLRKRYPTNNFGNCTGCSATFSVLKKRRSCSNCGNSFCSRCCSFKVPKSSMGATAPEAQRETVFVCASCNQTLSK
Described as above.

Assay [7] addresses T7, E2-ZFYVE27^ΔHR3 (del 185-207aa) (human) (UniProt Q5T4F4).
T7 sequence: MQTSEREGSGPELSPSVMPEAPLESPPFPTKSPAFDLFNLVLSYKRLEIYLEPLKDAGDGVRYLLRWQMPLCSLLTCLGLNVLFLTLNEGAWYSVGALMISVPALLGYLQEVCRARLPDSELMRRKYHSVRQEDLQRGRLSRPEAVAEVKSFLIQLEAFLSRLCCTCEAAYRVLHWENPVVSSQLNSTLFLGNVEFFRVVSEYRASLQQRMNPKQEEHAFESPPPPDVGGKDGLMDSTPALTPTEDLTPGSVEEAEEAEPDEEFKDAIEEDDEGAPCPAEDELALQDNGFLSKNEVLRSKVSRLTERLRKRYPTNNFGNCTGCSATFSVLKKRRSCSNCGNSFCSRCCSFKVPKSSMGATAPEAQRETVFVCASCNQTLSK
The description is as above.

Assay [8] deals with T1, ZFYVE27^WT (full-length ZFYVE27, E2- or c-Myc-tagged, in mammalian cells) (human). Description: co-IP; NIH-3T3 co-transfected with GFP-Spastin and an E2-tagged ZFYVE27 construct; immunoprecipitation with E2-tag antibody or rabbit IgG (mock), Western blot with GFP antibody.
The target of assay [9] is T7, E2-ZFYVE27^ΔHR3 (del 185-207aa) (human). The assay is described as above.

These are yes or no findings as the source states them, for the method shown. For some assays here: In cells and extracts the contact can be indirect. Some entries that bind do so weakly or less than the wild type. Where a sequence is shown, tags or fusion partners need not be part of it.

B1: E2-ZFYVE27^ΔN(150-404aa) (domain or fragment, UniProt Q5T4F4-2 150-404)
chain: KSFLIQLEAFLSRLCCTCEAAYRVLHWENPVVSSQFYGALLGTVCMLYLLPLCWVLTLLNSTLFLGNVEFFRVVSEYRASLQQRMNPKQEEHAFESPPPPDVGGKDGLMDSTPALTPTEDLTPGSVEEAEEAEPDEEFKDAIEEDDEGAPCPAEDELALQDNGFLSKNEVLRSKVSRLTERLRKRYPTNNFGNCTGCSATFSVLKKRRSCSNCGNSFCSRCCSFKVPKSSMGATAPEAQRETVFVCASCNQTLSK
On to B1, for which the binding entry in assay [1] is recorded as “binds”.

B2: full-length human ZFYVE27 (yeast two-hybrid fusion) (protein, UniProt Q5T4F4-2 1-404)
chain: MQTSEREGSGPELSPSVMPEAPLESPPFPTKSPAFDLFNLVLSYKRLEIYLEPLKDAGDGVRYLLRWQMPLCSLLTCLGLNVLFLTLNEGAWYSVGALMISVPALLGYLQEVCRARLPDSELMRRKYHSVRQEDLQRGRLSRPEAVAEVKSFLIQLEAFLSRLCCTCEAAYRVLHWENPVVSSQFYGALLGTVCMLYLLPLCWVLTLLNSTLFLGNVEFFRVVSEYRASLQQRMNPKQEEHAFESPPPPDVGGKDGLMDSTPALTPTEDLTPGSVEEAEEAEPDEEFKDAIEEDDEGAPCPAEDELALQDNGFLSKNEVLRSKVSRLTERLRKRYPTNNFGNCTGCSATFSVLKKRRSCSNCGNSFCSRCCSFKVPKSSMGATAPEAQRETVFVCASCNQTLSK
Consider B2, for which the binding entry is “binds” in the assay with ZFYVE27^150-250 (human), “binds” in [2], “no binding” in assay [3] and “binds weakly” with ZFYVE27^1-184 (human).

B3: ZFYVE27^WT (full-length ZFYVE27, E2- or c-Myc-tagged, in mammalian cells) (natural protein, human, UniProt Q5T4F4-2 1-404, looked up)
chain: MQTSEREGSGPELSPSVMPEAPLESPPFPTKSPAFDLFNLVLSYKRLEIYLEPLKDAGDGVRYLLRWQMPLCSLLTCLGLNVLFLTLNEGAWYSVGALMISVPALLGYLQEVCRARLPDSELMRRKYHSVRQEDLQRGRLSRPEAVAEVKSFLIQLEAFLSRLCCTCEAAYRVLHWENPVVSSQFYGALLGTVCMLYLLPLCWVLTLLNSTLFLGNVEFFRVVSEYRASLQQRMNPKQEEHAFESPPPPDVGGKDGLMDSTPALTPTEDLTPGSVEEAEEAEPDEEFKDAIEEDDEGAPCPAEDELALQDNGFLSKNEVLRSKVSRLTERLRKRYPTNNFGNCTGCSATFSVLKKRRSCSNCGNSFCSRCCSFKVPKSSMGATAPEAQRETVFVCASCNQTLSK
notes: numbers count on: this 404-residue isoform; Each copy carries only one tag: E2 (vector pQM-N-Tag A) or six c-Myc tags (vector pCS2-myc); The two differently tagged copies are written as one molecule because the protein is tested against itself; With the E2-tagged deletion constructs the c-Myc copy was used; with GFP-Spastin and in the sucrose gradient the E2 copy; also called E2-ZFYVE27^WT; …
As to B3, the binding entry in [1], in assay [4], in assay [5], in assay [6] and in assay [7] was “binds” each time.

B4: E2-ZFYVE27^ΔC(1-150aa) (domain or fragment, UniProt Q5T4F4-2 1-150)
chain: MQTSEREGSGPELSPSVMPEAPLESPPFPTKSPAFDLFNLVLSYKRLEIYLEPLKDAGDGVRYLLRWQMPLCSLLTCLGLNVLFLTLNEGAWYSVGALMISVPALLGYLQEVCRARLPDSELMRRKYHSVRQEDLQRGRLSRPEAVAEVK
For the molecule B4, the binding result in assay [1] is “binds”.

B5: GFP-Spastin (protein, UniProt Q9UBP0 1-616)
chain: MNSPGGRGKKKGSGGASNPVPPRPPPPCLAPAPPAAGPAPPPESPHKRNLYYFSYPLFVGFALLRLVAFHLGLLFVWLCQRFSRALMAAKRSSGAAPAPASASAPAPVPGGEAERVRVFHKQAFEYISIALRIDEDEKAGQKEQAVEWYKKGIEELEKGIAVIVTGQGEQCERARRLQAKMMTNLVMAKDRLQLLEKMQPVLPFSKSQTDVYNDSTNLACRNGHLQSESGAVPKRKDPLTHTSNSLPRSKTVMKTGSAGLSGHHRAPSYSGLSMVSGVKQGSGPAPTTHKGTPKTNRTNKPSTPTTATRKKKDLKNFRNVDSNLANLIMNEIVDNGTAVKFDDIAGQDLAKQALQEIVILPSLRPELFTGLRAPARGLLLFGPPGNGKTMLAKAVAAESNATFFNISAASLTSKYVGEGEKLVRALFAVARELQPSIIFIDEVDSLLCERREGEHDASRRLKTEFLIEFDGVQSAGDDRVLVMGATNRPQELDEAVLRRFIKRVYVSLPNEETRLLLLKNLLCKQGSPLTQKELAQLARMTDGYSGSDLTALAKDAALGPIRELKPEQVKNMSASEMRNIRLSDFTESLKKIKRSVSPQTLEAYIRWNKDFGDTTV
On to B5, for which the binding result in assay [8] and in assay [9] was “binds” each time.

B6: E2-ZFYVE27^ΔHR3 (del 185-207aa) (protein, UniProt Q5T4F4-2)
chain: MQTSEREGSGPELSPSVMPEAPLESPPFPTKSPAFDLFNLVLSYKRLEIYLEPLKDAGDGVRYLLRWQMPLCSLLTCLGLNVLFLTLNEGAWYSVGALMISVPALLGYLQEVCRARLPDSELMRRKYHSVRQEDLQRGRLSRPEAVAEVKSFLIQLEAFLSRLCCTCEAAYRVLHWENPVVSSQLNSTLFLGNVEFFRVVSEYRASLQQRMNPKQEEHAFESPPPPDVGGKDGLMDSTPALTPTEDLTPGSVEEAEEAEPDEEFKDAIEEDDEGAPCPAEDELALQDNGFLSKNEVLRSKVSRLTERLRKRYPTNNFGNCTGCSATFSVLKKRRSCSNCGNSFCSRCCSFKVPKSSMGATAPEAQRETVFVCASCNQTLSK
As for B6, the binding entry in [1] is given as “binds”.

The record behind these values is paper PMC3247280, “Oligomerization of ZFYVE27 (Protrudin) Is Necessary to Promote Neurite Extension” (PLoS ONE, 2011).
